PubChem BioAssay AID602293 (National Center for Advancing Translational Sciences (NCATS), 2012)
Among all 1,300 compounds or so, about 30 (2%) were called active. Inconclusive results (about 10%) are left out. Calls follow the shape of the dose curve; as a rule, active = well fitted inhibition curve with a large enough effect; inconclusive = small, poorly fitted or top-dose-only effect; inactive = flat fitted curve, though single readings scatter. This is one part of the list.

assay: qHTS for antagonists of the Thyroid Stimulation Hormone Receptor: Hit Validation in HTRF Activity in a Luteinizing Hormone Receptor Cell Line; settings: LHR-expressing cell line, cAMP HTRF, antagonist mode; series mostly up to 58 µM; activity change, negative = inhibition: at the top concentration
Procedure, shortened: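 Counter-screen on LH receptor–transfected HEK 293 cells: 30 min compound exposure at room temperature in medium containing 100 uM RO 20-1724 phosphodiesterase inhibitor. Cellular cAMP read by competitive HTRF after lysis with d2-cAMP and anti-cAMP antibody (330 nm excitation; 615/660 nm emission).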
% is scaled to controls: 0 for no effect and ±100 for the full control effect.

Activity change, negative = inhibition, inactive:
CC(c1nnnn1C1CCCCC1)N(Cc1ccccc1)Cc1cccnc1 (stereo unspecified) 2.29%
Cc1ccc(C(=O)C2=C(O)C(=O)N(c3ncccn3)C2c2ccccc2F)o1 (stereo unspecified) -6.53%
OCCSc1nnc(Nc2ccccc2)s1 0.323%
N#CC1=C(N)NC(SCc2ccc(Br)cc2)=C(C#N)C12CCCCC2 -0.0416%
Cc1nc2ncnn2c(N2CCCC(C(=O)Nc3ccccc3Br)C2)c1C (stereo unspecified) -1.19%
CCOC(=O)COc1ccc(S(=O)(=O)NCCC2=CCCCC2)cc1 1.59%
Nc1ccn(Cc2ccccc2F)n1 3.27%
S=c1[nH]nc(-c2ccccc2Cl)n1Cc1ccccc1 -0.212%
Cc1ccc(-n2[nH]c(C)c(/C=N/Nc3ccc([N+](=O)[O-])cc3[N+](=O)[O-])c2=O)cc1C 1.42%
COc1ccc(Nc2ccc([N+](=O)[O-])c3nonc23)c(OC)c1 1.19%
CC(C)c1nnc(NC(=O)c2nc(S(=O)(=O)Cc3ccccc3F)ncc2Cl)s1 -6.24%
O=C(CSc1nc2cc(Cl)c(Cl)cc2[nH]1)c1ccc2c(c1)OCO2 2.41%
Cc1cc(/C=N/n2c(COc3ccccc3C)nc3ccccc3c2=O)c(O)c([N+](=O)[O-])c1 1.53%
COCCNc1oc(Cc2cccc3ccccc23)nc1C#N 0.212%
Cc1ccc(/C=C/C(=O)Nc2ccc(Oc3ccccc3)cc2)o1 -5.47%
Cc1ccc2c(CN3CCN(S(=O)(=O)c4ccc5c(c4)OCCO5)CC3)cc(=O)oc2c1C -1.91%
N#Cc1c(F)cccc1N1CCN(Cc2ccc3c(c2)OCO3)CC1 -0.93%
COc1ccc(CCNc2ncnc3c2[nH]c2cc(OC)c(OC)cc23)cc1OC -3.52%
CCN(CC)S(=O)(=O)c1ccc(Oc2ccc(S(=O)(=O)N(CC)CC)cc2)cc1 -2.52%
CC(Sc1nnc(N)s1)c1ccccc1Cl (stereo unspecified) 0.519%
Cc1onc(-c2ccccc2)c1NC(=O)N(Cc1ccccc1)C(C)C -0.992%
CCN(c1cccc(C)c1)S(=O)(=O)c1cn(CC(=O)OC)c2ccc([N+](=O)[O-])cc12 0.831%
O=S(=O)(Nc1cccnc1)c1cc(Cl)ccc1Cl 2.54%
O=C(COc1cccc(Cl)c1)Nc1nc(-c2ccc(S(=O)(=O)N3CCOCC3)cc2)cs1 -1.65%
Cc1sc2nc(-c3ccccn3)[nH]c(=O)c2c1-c1ccccc1 -0.211%
O=C(N/N=C/c1ccc[nH]1)c1sc2ccccc2c1Cl 2.85%
Cc1ccc(Nc2cc(C)nc3ccc(C)cc23)cc1 -1.33%
CC(=O)c1sc(NC(=O)c2cc(-c3ccccc3)nn2-c2ccccc2)nc1C -8.29%
COc1ccc(Cn2nnnc2C(C(C)C)N2CCN(c3ccccc3OC)CC2)cc1 (stereo unspecified) -1.3%
O=C(CNC(=O)c1ccco1)OCC(=O)c1ccccc1 0.433%
Cc1cc2c(NCc3ccccc3)ncnc2s1 0.267%
Cc1ccc(NC(=O)Nc2ccc3c(c2)N(C)C(=O)CS3)cc1C 1.04%
CCOc1ccc(-c2csc(/C(C#N)=C\c3ccc(O)c([N+](=O)[O-])c3)n2)cc1 -4.49%
N#C/C(=N\Nc1cccc([N+](=O)[O-])c1)C(=O)c1ccc(Br)cc1 -1.57%
Cc1ccccc1CS(=O)(=O)c1nnc([C@H](Cc2ccccc2)NC(=O)OC(C)(C)C)o1 -0.485%
COc1ccc(-c2nc(CS(=O)CC(=O)NCc3ccccc3)c(C)o2)cc1OC (stereo unspecified) 0.304%
CCOc1cc(C(=O)NC2CC(C)(C)NC(C)(C)C2)cc(OCC)c1OCC 1.9%
Fc1ccc2nc(Nc3nc4c(F)cc(F)cc4s3)sc2c1 -7.21%
COCc1c(C(=O)Nc2cccc(S(=O)(=O)N3CCCCC3)c2)oc2ccccc12 -0.436%
COc1cc(/C=C/C(=O)c2ccc(NS(=O)(=O)c3ccc(C)cc3)cc2)ccc1OC(F)F -2.16%
COc1ccccc1NS(=O)(=O)c1cccc(NC(=O)c2nn(C)c(=O)c3ccccc23)c1 -1.82%
C/C(=N\Nc1cc(C)nc(-c2ccccc2O)n1)c1ccccc1 0.625%
O=C(N[C@H]1C/C=C\C(c2cccc(F)c2)N(Cc2ccccc2)C(=O)C1)OCC1c2ccccc2-c2ccccc21 (stereo partly specified) 0.541%
O=C1C(Nc2ccc(O)cc2)=C/C(=N/S(=O)(=O)c2cccs2)c2ccccc21 -7.49%
CC(Sc1nnc2c(n1)[nH]c1ccccc12)C(=O)N(C)C1CCCCC1 (stereo unspecified) -6.16%
O=C(NCc1cccc(Cl)c1)c1cc(COc2ccc3ncccc3c2)on1 -4.84%
CC(OC(=O)C1CCN(c2ccc(C(F)(F)F)cn2)CC1)C(=O)Nc1cccc([N+](=O)[O-])c1 (stereo unspecified) -2.43%
O=C(c1ccccc1)c1ccc(Cn2cc(-c3ccccc3)nn2)cc1 -3.76%
Cn1c(CNC(=O)C(Cc2ccccc2)NC(=O)c2ccccc2)cc(=O)n(C)c1=O (stereo unspecified) -0.184%
CCc1nn(CC(=O)N2CCCCCC2)c(=O)c2cc3ccccc3n12 1.29%
O=S(=O)(Nc1cccc(-c2cn3cccnc3n2)c1)c1ccc(-c2ccccc2)cc1 -0.336%
COCCNC(=S)N1CCCN(c2nc3cc(C)ccc3cc2C#N)CC1 0.829%
O=C(NC(Nc1nc2ccc([N+](=O)[O-])cc2s1)(C(F)(F)F)C(F)(F)F)c1ccccc1 -6.57%
Cn1cc(Cl)c(C(=O)N/N=C/c2ccc3c4c(cccc24)CC3)n1 -0.818%
COc1ccc(N2CCN(C(=O)c3ccccc3N(C)S(=O)(=O)c3ccccc3)CC2)cc1 2.5%
CCCCCCOc1ccc(NC(=O)CC2C(=O)N(CC)C(=S)N2Cc2ccco2)cc1 (stereo unspecified) 0.236%
Cc1cc(=O)[nH]c(SCC(=O)Nc2ccc(Br)cc2)c1C#N 0.873%
COc1ccc(NS(=O)(=O)c2cc(NC(=O)/C=C/c3cc(OC)ccc3OC)ccc2N2CCCCC2)cc1 2.29%
O=C(Nc1ccc2nc3n(c(=O)c2c1)CCCCC3)C(=O)N1CCN(c2ccccc2F)CC1 -1.1%
Oc1c(Cl)cc(Cl)c(Cl)c1Cc1c(O)c(Cl)cc(Cl)c1Cl -1.93%
CCN(c1ccccc1)S(=O)(=O)c1ccc(C(=O)N(CCCN(C)C)c2nc3cc4c(cc3s2)OCO4)cc1 -2.95%
CC(C)C(c1nnnn1C(C)(C)C)N1CCN(c2cccc(Cl)c2)CC1 (stereo unspecified) -2.86%
C/C(=N/NS(=O)(=O)c1ccc(Br)cc1)c1ccc(NC(=O)c2ccc(C)o2)cc1 2.24%
Cc1ccc(SCC(=O)NCc2ccccc2C)cc1 -0.429%
N#C/C(=C(/O)COC(=O)c1ccc(C#N)cc1)c1nc2ccccc2s1 1.45%
CCC(C)(C)C1CCC(NC(=O)N2CCN(c3ccccc3O)CC2)CC1 (stereo unspecified) -0.692%
COC(=O)c1cc(-c2c[nH]c3ccccc23)n[nH]1 0.527%
Cc1c(C(=O)OC/C(O)=C(\C#N)c2nc3ccccc3[nH]2)oc2ccc(Br)cc12 -2.01%
O=C(CSc1ncnc2ccccc12)c1ccc2c(c1)OCCO2 -2.55%
O=C(NC(=S)Nc1ccccc1)c1cc(-c2ccccc2)nc2ccccc12 -3.13%
CCOc1cc(/C=C(\C#N)c2nc(-c3cccs3)c(NC(C)=O)s2)ccc1O -7.62%
Cc1ccc(S(=O)(=O)/N=C2\C=C(Nc3cccc(C(=O)O)c3)C(=O)c3ccccc32)c(C)c1 2.48%
COc1ccc(C(c2nnnn2Cc2cccs2)N2CCN(c3ccccc3)CC2)cc1OC (stereo unspecified) 0.958%
CC(=O)c1ccc(NC(=O)C(C)N(C)CC(=O)Nc2ccc(N3CCOCC3)cc2)cc1 (stereo unspecified) 2.74%
CCOc1cc(C(=S)N2CCOCC2)ccc1OC(=O)c1ccccc1 -1.14%
O=C(Nc1nc(-c2cccs2)cs1)c1ccc(S(=O)(=O)N2CCCCC2)cc1 -4.9%
CC(Sc1nn(-c2ccc(F)cc2)c(=S)s1)C(=O)c1c(N)n(C)c(=O)n(C)c1=O (stereo unspecified) -2.58%
Cc1cc(C=O)c(C)n1-c1ccc(NC2CCCC2)c([N+](=O)[O-])c1 0.893%
COc1ccc(S(=O)(=O)Nc2ccc(C)cc2)cc1N(C)S(=O)(=O)c1ccc(Cl)cc1 -3.51%
COc1cc2c(cc1OC)CN(C(=S)NC(=O)c1ccccc1)CC2 2.87%
O=C(Nc1ccncc1)C1CCN(S(=O)(=O)c2cccc(C(F)(F)F)c2)CC1 -0.603%
CC(C)c1ccc(/C=C/C(=O)NCCC2=CCCCC2)cc1 1.16%
COc1ccc(-c2nnc(NC(=O)c3ccc4c(c3)OCCO4)o2)cc1 0.767%
Cc1ccc(NC(=O)Cn2nnc(C(=O)NCCc3ccccc3)c2N)c(C)c1 2.31%
COc1ccc(C(=O)/C=C/Nc2ccc(S(=O)(=O)Nc3cccc(C(C)=O)c3)cc2)cc1 -8.54%
Cc1ccc(C(=O)COC(=O)CCN2C(=O)C3C4CCC(C4)C3C2=O)cc1[N+](=O)[O-] (stereo unspecified) 0.424%
COc1cccc(-c2nc(CS(=O)(=O)CC(=O)N3CCCCC3)c(C)o2)c1 -1.03%
O=C(c1cc(COc2cccc3cnccc23)on1)N1CCCC(CCCO)C1 (stereo unspecified) -6.85%
CC1(C)CC(=O)c2c(nc3ccccc3c2N)C1 -1.77%
O=S(=O)(Nc1ccc2cn[nH]c2c1)c1cc(Br)ccc1Br -0.271%
CCc1cc2c(NCc3ccccc3)nc(C)nc2s1 -3.56%
COC(=O)c1nc2n(n1)C(c1cccc(Cl)c1)C1=C(CCCC1=O)N2 (stereo unspecified) 2.58%
CCCCCCSc1ccc(-c2nc3ccc(Cl)cn3c2NCCCC)cc1OC -1.07%
Cc1ccc(N2C(=O)C3C4C=CC(CC4)C3C2=O)cc1Cl (stereo unspecified) 0.13%
Cc1nn(-c2ccc(N3CCOCC3)nn2)c(C)c1CCC(=O)NCc1ccccc1F 2.89%
CC1CCCC(N2CCN(S(=O)(=O)c3ccccc3)CC2)C1 (stereo unspecified) 1.17%
COc1cccc(CNC(=O)CN2C(=O)CSc3ccc(S(=O)(=O)N4CCOCC4)cc32)c1 1.46%
O=c1[nH]c(=S)[nH]c2c1CN(Cc1ccc(F)cc1)CC2 -0.904%
CCN(c1ccccc1)S(=O)(=O)c1ccc(NCC2COc3ccccc3O2)nc1 (stereo unspecified) -1.55%
CC(C)COc1cccc(-c2cc(C(=O)Nc3ccon3)c3ccccc3n2)c1 -0.952%
Cc1nc2ccc(Nc3nc4cc(S(=O)(=O)N5CCOCC5)ccc4o3)cc2s1 -1.65%
